Reference: PubChem BioAssay AID1768 (National Center for Advancing Translational Sciences (NCATS), 2009)
The whole screen tested about 270,000 compounds, of which about 620 (0.23%) were called active. Inconclusive means that the source gave no clear call. Such entries were picked first, then a sample of the others. The call rests on the fitted dose curve; in most records, active means well fitted inhibition curve with a large enough effect in the polarisation, with a control signal flat (not every such curve was filed as active); inconclusive means small, poorly fitted or top-dose-only effect, or effect the other way, or a change in a side signal; inactive means no such curve, though single readings can be large or run the other way; the % refers to the polarisation. Potencies beside an inconclusive call are fits to weak or partial responses and may not hold up. “Side channel” marks fits to a control or component signal instead of the main read-out.
Potency means the concentration at half of the fitted maximal effect; tags describe the fitted curve by direction and shape or compound fluorescence and quenching.
Wherever FP activity change, negative = inhibition is given: % of control where 0% means no effect.

These compounds were tested against Menin (Homo sapiens) (UniProt O00255) (assay: qHTS Assay for Inhibitors Targeting the Menin-MLL Interaction in MLL Related Leukemias: Competition With Texas Red Labeled MLL-derived Mutant Peptide). Conditions: fluorescence polarization; FP activity change, negative = inhibition: at 61.6 µM (top of the series).
Sequence of UniProt O00255 (O00255 whole entry, looked up): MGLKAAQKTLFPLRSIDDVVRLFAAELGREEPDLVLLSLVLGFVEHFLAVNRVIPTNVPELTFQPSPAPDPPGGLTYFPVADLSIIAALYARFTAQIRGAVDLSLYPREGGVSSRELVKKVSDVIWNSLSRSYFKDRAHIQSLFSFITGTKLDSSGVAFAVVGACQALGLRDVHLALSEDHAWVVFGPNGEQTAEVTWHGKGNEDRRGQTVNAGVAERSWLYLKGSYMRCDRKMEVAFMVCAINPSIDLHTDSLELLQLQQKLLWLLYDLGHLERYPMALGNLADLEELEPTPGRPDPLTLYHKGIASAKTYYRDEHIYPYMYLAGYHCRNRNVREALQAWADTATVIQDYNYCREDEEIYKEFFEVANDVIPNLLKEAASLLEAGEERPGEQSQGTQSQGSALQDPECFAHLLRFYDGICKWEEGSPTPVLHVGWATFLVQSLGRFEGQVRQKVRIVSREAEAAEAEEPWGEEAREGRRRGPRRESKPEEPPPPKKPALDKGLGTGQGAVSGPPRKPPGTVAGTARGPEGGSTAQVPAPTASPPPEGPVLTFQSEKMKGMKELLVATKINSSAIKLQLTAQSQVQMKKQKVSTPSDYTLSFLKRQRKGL
With Fc1ccc(NC(=S)Nc2cccnc2)cc1Cl the Potency was inconclusive: 10 µM [quencher, side channel, partial curve]. For CC(NC(=O)CCn1ccc2cc(S(=O)(=O)N3CCCC3)ccc21)c1ccccc1 (stereo not drawn), the “FP activity change, negative = inhibition” value was inactive: 11.9%. COc1cccc(C=Nc2ccccc2C(=O)Nc2nccs2)c1OC was tested, and the Potency was inconclusive: 28.2 µM [quencher, side channel, single point]. With COC(=O)CCC(=O)Nc1cccc([N+](=O)[O-])c1 the Potency was inconclusive: 2.82 µM [quencher, side channel, full curve, poor fit]. CCCNC(=O)N1CCN(Cc2ccco2)CC1 was tested, and the Potency was inconclusive: 39.8 µM [quencher, side channel, single point]. In the case of O=C(Nc1cc(Oc2ccc(Cl)cc2)cc([N+](=O)[O-])c1)c1ccco1, the Potency is reported as inconclusive: 10 µM [quencher, side channel, partial curve]. With C=CCOC(=O)N[C@H](/C(C(=O)OC)=C(\C)NCc1ccccc1)c1ccc(C)cc1 the “FP activity change, negative = inhibition” value was inactive: -5.03%. In the case of COc1ccc(C2N(c3ccc(C)cc3)CCN2c2ccc(C)cc2)cc1O, the Potency is reported as inconclusive: 10 µM [quencher, side channel, partial curve]. For CC(C)COP(=O)(OCC(C)C)C(Nc1ccccc1)c1ccc(F)cc1 (stereo not drawn), the Potency was inconclusive: 15.8 µM [fluorescent, side channel, partial curve]. In the case of Cc1c(C(=O)NNC(=S)Nc2cccc(Cl)c2)nnn1-c1ccccc1, the Potency is reported as inconclusive: 39.8 µM [quencher, side channel, single point]. N#Cc1cccc(-c2nc3cnc(N4CCOCC4)nc3n(Cc3ccc(F)cc3)c2=O)c1 was tested, and the “FP activity change, negative = inhibition” value was inactive: 9.29%. In the case of Cc1[nH]c2ccccc2c1N=Nc1ccccc1C(=O)O, the Potency is reported as inconclusive: 31.6 µM [quencher, side channel, partial curve]. With Cc1[nH]c2ccccc2c1C(=O)CN1C(=O)C(=O)N(Cc2ccco2)C1=O the “FP activity change, negative = inhibition” value was inactive: 1.69%. With O=C(Cn1cnc2cc([N+](=O)[O-])ccc2c1=O)Nc1ccc2c(c1)OCO2 the Potency was inconclusive: 39.8 µM [quencher, side channel, single point]. CCOC(=O)c1c(Nc2ccccc2)sc(/C=C2\C=Nc3ccccc32)c1O was tested, and the Potency was inconclusive: 7.08 µM [quencher, side channel, partial curve]. In the case of O=C(Nc1ccc(Cl)cc1)N1CCc2ccccc2C1, the Potency is reported as inconclusive: 25.1 µM [quencher, side channel, single point]. COC(=O)C1=C(C(=O)OC)[C@@H]2N(C)c3ccccc3[C@@]23C[C@@H](CO)N(C(=O)c2ccco2)C3=N1 was tested, and the FP activity change, negative = inhibition was inactive: 5.39% [at 11.7 µM]. In the case of CN1CCN(c2nc(-c3ccccc3O)nc3ccccc23)CC1, the Potency is reported as inconclusive: 22.4 µM [inhibitor, partial curve]. For COc1ccc(CNc2ncc(-c3ccc(Cl)cc3)n2C)c(OC)c1OC, the Potency was inconclusive: 12.6 µM [inhibitor, partial curve]. In the case of CCCc1cc(=O)[nH]c(SCC(=O)Nc2nc(-c3ccccc3)cs2)n1, the Potency is reported as inconclusive: 39.8 µM [inhibitor, single point]. With O=c1c(Cc2c(F)cccc2Cl)c(O)ccn1CCc1ccccn1 the “FP activity change, negative = inhibition” value was inactive: 1.69%. With COc1ccccc1-c1nc(-c2ccc(Br)o2)no1 the Potency was inconclusive: 8.91 µM [inhibitor, full curve]. With CC(C)(C)C(=O)COC(=O)c1cccc(NC(=O)c2ccco2)c1 the Potency was inconclusive: 39.8 µM [fluorescent, side channel, single point]. For C=C1CCN(C(CC(C)C)C(=O)NCc2ccc(Cl)cc2)S(=O)(=O)c2ccccc21 (stereo not drawn), the “FP activity change, negative = inhibition” value was inactive: 7.75%. Cn1c(-c2nnn(-c3ccc(F)cc3)n2)cc2ccccc21 was tested, and the Potency was inconclusive: 28.2 µM [quencher, side channel, single point]. For Cc1ccccc1COc1cccc(/C=N/NC(=O)c2nnn(-c3nonc3N)c2C)c1, the Potency was inconclusive: 8.91 µM [fluorescent, side channel, partial curve]. Nn1c(SCC(=O)Nc2ccccc2F)nc2ccccc2c1=O was tested, and the Potency was inconclusive: 20 µM [inhibitor, partial curve]. In the case of Cc1cccc(C(=O)NNC2=C(C(=O)C(F)(F)F)CCC2)c1O, the Potency is reported as inconclusive: 25.1 µM [quencher, side channel, partial curve]. For O=C(CN(Cc1ccccc1)C(=O)CNS(=O)(=O)c1ccccc1)NCC1CCCO1 (stereo not drawn), the Potency was inconclusive: 35.5 µM [inhibitor, single point]. In the case of CCN(C(=O)COC(=O)c1cc(-c2ccccc2)nc2ccc(Br)cc12)C1CCS(=O)(=O)C1 (stereo not drawn), the Potency is reported as inconclusive: 20 µM [quencher, side channel, partial curve]. With Cn1c(SCC(=O)N2CCCC2)nc2cccnc21 the Potency was inconclusive: 8.91 µM [inhibitor, full curve, poor fit]. For Cc1c(C(=O)NC2CCS(=O)(=O)C2)oc2ccccc12 (stereo not drawn), the “FP activity change, negative = inhibition” value was inactive: -33.8%. In the case of CCOc1ccc(C(=O)N/N=C(\c2ccccc2)c2ccccn2)cc1, the Potency is reported as inconclusive: 11.2 µM [fluorescent, side channel, partial curve]. In the case of C=C(C(C)=O)C(O)c1ccc([N+](=O)[O-])cc1 (stereo not drawn), the Potency is reported as inconclusive: 39.8 µM [fluorescent, side channel, single point]. With CCOC(=O)C1C(C)N=C2SCC(=O)N2C1c1cccc(Br)c1 (stereo not drawn) the Potency was inconclusive: 22.4 µM [fluorescent, side channel, single point]. With CCCCCn1c(CN2CCN(c3cccc(Cl)c3)CC2)nc2c1c(=O)[nH]c(=O)n2C the Potency was inconclusive: 14.1 µM [fluorescent, side channel, partial curve]. For CCOc1ccc(N2C(=O)CN(c3cccc4ccccc34)C2=S)cc1, the Potency was inconclusive: 39.8 µM [fluorescent, side channel, single point]. In the case of ClCC1CSC(=NC23CC4CC(CC(C4)C2)C3)O1 (stereo not drawn), the Potency is reported as inconclusive: 20 µM [fluorescent, side channel, partial curve].
